Reference: PMC4336329 (PLoS ONE, 2015)
In all, about 310,000 compounds went through this assay and about 2,200 (0.71%) showed an effect of 50% or more. The effect is printed as a negative number. The list shows a part of the results.

Target: human ether-à-go-go-related gene (hERG) potassium channel (human, UniProt Q12809)
Experiment: primary screen, population patch clamp on CHO cells stably expressing hERG

Sequence of human ether-à-go-go-related gene (hERG) potassium channel (Q12809 whole entry, looked up): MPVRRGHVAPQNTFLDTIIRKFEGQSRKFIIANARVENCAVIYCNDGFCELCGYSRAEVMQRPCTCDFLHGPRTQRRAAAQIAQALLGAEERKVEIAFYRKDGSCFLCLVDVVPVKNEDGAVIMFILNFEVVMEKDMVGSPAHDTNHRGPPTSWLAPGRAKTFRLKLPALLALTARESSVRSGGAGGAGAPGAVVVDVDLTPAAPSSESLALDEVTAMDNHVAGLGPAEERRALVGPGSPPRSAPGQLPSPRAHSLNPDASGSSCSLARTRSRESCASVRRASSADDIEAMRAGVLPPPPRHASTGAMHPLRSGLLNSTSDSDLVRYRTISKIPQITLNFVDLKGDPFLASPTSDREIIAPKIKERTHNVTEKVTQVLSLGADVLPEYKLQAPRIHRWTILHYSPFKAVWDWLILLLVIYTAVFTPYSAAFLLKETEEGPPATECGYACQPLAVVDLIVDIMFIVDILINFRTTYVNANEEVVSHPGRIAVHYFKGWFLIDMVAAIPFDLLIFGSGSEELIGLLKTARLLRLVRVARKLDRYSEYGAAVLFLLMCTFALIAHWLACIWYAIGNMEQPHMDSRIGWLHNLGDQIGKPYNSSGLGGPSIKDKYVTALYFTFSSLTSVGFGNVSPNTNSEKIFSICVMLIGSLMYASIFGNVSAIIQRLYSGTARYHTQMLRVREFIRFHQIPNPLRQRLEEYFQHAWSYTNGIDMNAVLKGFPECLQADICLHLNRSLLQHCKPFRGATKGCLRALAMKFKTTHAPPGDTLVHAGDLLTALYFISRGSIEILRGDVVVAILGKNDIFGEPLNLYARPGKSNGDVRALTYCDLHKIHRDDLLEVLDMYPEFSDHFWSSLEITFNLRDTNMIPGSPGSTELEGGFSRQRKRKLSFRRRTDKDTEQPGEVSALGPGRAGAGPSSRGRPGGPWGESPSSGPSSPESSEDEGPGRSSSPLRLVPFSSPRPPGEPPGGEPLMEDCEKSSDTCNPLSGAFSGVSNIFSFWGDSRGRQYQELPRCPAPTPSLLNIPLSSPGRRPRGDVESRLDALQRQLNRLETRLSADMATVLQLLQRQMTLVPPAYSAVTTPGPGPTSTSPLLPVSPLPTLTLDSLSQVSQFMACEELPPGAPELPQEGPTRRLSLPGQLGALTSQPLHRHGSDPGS

| SMILES | hERG current change (%, negative = inhibition) at 1uM [%] |
| --- | --- |
| O=C(O)C(C/C(=N/O)c1ccc(Br)cc1)P(=O)(c1ccccc1)c1ccccc1 (stereo not drawn) | 11.4 |
| O=C(O)CC(NC(=O)C1c2ccccc2Oc2ccccc21)c1ccc(Cl)cc1 (stereo not drawn) | 4.83 |
| COc1ccc(S(=O)(=O)N2CCN(CCOc3ccc(Br)cc3)CC2)cc1OC | 0.25 |
| Cc1occc1-c1nnc(SCC(=O)c2ccc3c(c2)OCCO3)n1CC1CCCO1 (stereo not drawn) | 0.261 |
| CCC(=NCCC1=CCCCC1)c1c(O)[nH]c(=O)[nH]c1=O | -4.06 |
| Cc1cc(Cl)ccc1OCc1nc(-c2ccncc2)no1 | 8.18 |
| COc1ccc(CCNCC(O)COc2cccc(C(C)=O)c2)cc1OC.O=C(O)C(=O)O (stereo not drawn) | 16 |
| O=C(CN1C(=O)C2CC=CCC2C1=O)NCc1cccs1 (stereo not drawn) | 10.8 |
| O=C(CN1CCN(Cc2ccccc2F)C1=O)NCC1CCCO1 (stereo not drawn) | 9.72 |
| C/C(=N/Nc1ccc(Cl)cc1)c1cnnc(-c2ccccc2)n1 | 19.6 |
| N#Cc1c(-c2ccccc2)cc(-c2ccccc2)nc1SCC(=O)O | 14.3 |
| COc1ccc(NCc2nnc(SCC(=O)N3CCCc4ccccc43)o2)cc1 | 3.64 |
| COC(=O)c1cc(NC(=O)Nc2ccccc2)ccc1Cl | 9.56 |
| Cc1ccc(-c2nc(CS(=O)CC(=O)NCc3ccc(Cl)cc3)c(C)o2)cc1 (stereo not drawn) | 5.91 |
| Cc1noc(C)c1C(=O)Nc1ccc(F)cc1 | 23.9 |
| CCOC(=O)c1ccccc1NC(=O)c1cc2ccccc2o1 | 15.6 |
| CCCOc1ccc(C(=O)CCC(=O)Nc2ccc(N3CCN(C)CC3)cc2)cc1 | 1.17 |
| CCOc1ccccc1C(=O)NCC(=O)NNC(=O)CN(C)S(=O)(=O)c1ccc(Cl)cc1 | 7.26 |
| Br.O=C(Cn1c(NCCO)nc2ccccc21)c1ccc(F)cc1 | 12.2 |
| Cc1noc(C)c1COC(=O)c1cccnc1Cl | 11.9 |
| CN(CC(=O)NCCc1ccc(Cl)cc1)S(=O)(=O)c1ccc2c(c1)c(=O)n(C)c(=O)n2C | -0.657 |
| O=C(N/N=C/c1c[nH]c2ccccc12)c1ccccc1O | 12.3 |

| SMILES | hERG current change (%, negative = inhibition) at 1uM [%] |
| --- | --- |
| O=C(NCc1cccnc1)c1ccccc1NC(=O)c1c(F)cccc1F | 8.41 |
| COC(=O)c1ccc2c(=O)n(CCN3CCOCC3)c(SCC(=O)Nc3ccccc3Cl)nc2c1 | 8.04 |
| CCC(C)(C)C1CCC2(CC1)NC(=S)N(c1ccccc1)N2 (stereo not drawn) | 11.1 |
| CCCn1c(C(C)Nc2nc(-c3ccc(C)cc3)cs2)nc2cc(Cl)c(N3CCCCC3)cc21 (stereo not drawn) | 24.8 |
| Cc1ccc2nc(SCC(=O)Nc3cc(C)on3)c(C)cc2c1 | 16.7 |
| O=C(Cn1cnc2ccccc2c1=O)NCC(=O)N1CCOCC1 | -4.19 |
| CCCCCn1c(=NC(C)=O)c(C#N)cc2c(=O)n3ccccc3nc21 | 0.0455 |
| COc1ccc(S(=O)(=O)N(C)CC(=O)NCc2ccco2)cc1OC | 13.9 |
| Cc1cc(=O)oc2cc(OC(C)C(=O)NCCCN3CCCC3=O)c(Cl)cc12 (stereo not drawn) | 12.6 |
| CCNC(=O)CC1C(=O)N(c2ccc(C)cc2)C(=O)N1CCC(C)C (stereo not drawn) | 7.2 |
| CCN(CC)N=Nc1ccc(S(=O)(=O)[N-]c2nc(C)cc(C)n2)cc1.[K+] | -2.71 |
| CC(C)(C)NNC(=S)Nc1cccc(F)c1 | 11.1 |
| CCOc1ccccc1NC(=O)Cn1cnc2c(nnn2-c2cccc(OC)c2)c1=O | 12.2 |
| COc1cccc(-c2nc(CS(=O)(=O)CC(=O)NCCCN3CC(C)CC(C)C3)c(C)o2)c1 (stereo not drawn) | -5.41 |
| COc1ccc(C(=O)NCCN2CCN(C(=O)c3ccc(OC)cc3)CC2)cc1 | -22.1 |
| COc1ccc(C(=O)NCCS(=O)(=O)N(C)Cc2ccccc2)cc1 | 3.51 |
| Cc1cccc(CC2CC(=O)N(c3ncccn3)C2=O)c1 (stereo not drawn) | 13.6 |
| Cc1cc(OC(C)C(=O)NCCN2CCOCC2)c2c(C)c(C)c(=O)oc2c1 (stereo not drawn) | 14.2 |
| O=C(CCNS(=O)(=O)c1ccc(Cl)cc1)N1CCCC1 | 16.9 |
| CCn1nc(NC(=O)c2ccccn2)c2cc3cccc(C)c3nc21 | 7.68 |
| CNC(=O)CN1C(=O)c2cccc3cccc1c23 | 14.5 |
| Cc1sc2nc(CN3CCC(C)CC3)nc(Cl)c2c1C | 4.96 |

| SMILES | hERG current change (%, negative = inhibition) at 1uM [%] |
| --- | --- |
| Cc1cccc(CC(=O)N2CCN=C2SCc2ccc([N+](=O)[O-])cc2)c1 | 10.5 |
| Cc1cc(NC(=O)CSc2nc3c(c(=O)n2-c2ccccc2)SC(C)C3)no1 (stereo not drawn) | -8.78 |
| COc1ccc(CN2CCN(Cc3ccccc3C(F)(F)F)CC2)c(OC)c1.O=C(O)C(=O)O | -39.5 |
| CCCC1(c2ccccc2)NC(=O)N(CC(=O)Nc2cc(S(=O)(=O)N3CCOCC3)ccc2Cl)C1=O (stereo not drawn) | 12.8 |
| CN1C(=O)/C(=N/OC(=O)c2ccccc2)c2ccccc21 | -4.57 |
| CC(C)n1c(SC2C(=O)CC(C)(C)CC2=O)nc2c1c(=O)n(C)c(=O)n2C | 10.2 |
| CCCCN(CC)Cc1ccc(CNC(=S)Nc2ccc(C)cc2Cl)o1 | 7.32 |
| COc1ccc(NC(=O)CN2C(=O)CSc3ncccc32)cc1 | -0.368 |
| Cc1nn(-c2cc(C(F)(F)F)ccc2Cl)c2nc(C(Cl)(Cl)Cl)[nH]c(=O)c12 | 6.45 |
| O=C(NCCCn1ccnc1)c1cc(-c2cccc(O)c2)on1 | 10.6 |
| CCCc1cc(C(=O)Nc2cccc(C(C)=O)c2)no1 | 12.3 |
| CC1=CC(c2ccccc2)n2nc(N)nc2N1 (stereo not drawn) | -4.83 |
| COc1cccc(C(c2c(N)[nH]c(=S)[nH]c2=O)c2c(N)[nH]c(=S)[nH]c2=O)c1 | 13 |
| CCOC(=O)c1nc2ccccc2c(=O)[nH]1 | 20.6 |
| O=C(Nc1ccccc1N1CCCC1)C1CCN(C(=O)c2ccc(Cl)cc2)CC1 | -15.9 |
| CN(CC(=O)N1CCN(c2ccccn2)CC1)S(=O)(=O)c1ccc(Br)cc1 | -13.3 |
| CC(=O)c1ccc(S(=O)(=O)Nc2ccc(C(=O)NCC(c3ccccc3)N(C)C)cc2)cc1 (stereo not drawn) | 9.2 |
| O=C(CN1CCN(C(=O)C2CCCO2)CC1)Nc1ccc(Br)cc1 (stereo not drawn) | -16.6 |
| COC(=O)c1cc2n(n1)CCN(Cc1ccc(OC)cc1)C2=O | 3.5 |
| CC1CCC(NC(=O)C2CCC(CNS(=O)(=O)c3cccc4nsnc34)CC2)CC1 (stereo not drawn) | 4.44 |
| O=C(Nc1ccc(C(=O)N2CCCc3ccccc32)cc1)c1cccs1 | 13.4 |
| CC(C)CC1C(C#N)=C(N)OC2=C1C(=O)CC(c1ccccc1)C2 (stereo not drawn) | 10.6 |

| SMILES | hERG current change (%, negative = inhibition) at 1uM [%] |
| --- | --- |
| CCCCNC(=O)/C(C#N)=C/c1ccc(F)cc1F | 6.27 |
| O=C(CCCC(=O)OCC(=O)c1cccs1)Nc1ccc(F)cc1 | 7.74 |
| O=C(/C=C/c1ccc(Cl)cc1)N(Cc1ccccc1)C1CCS(=O)(=O)C1 (stereo not drawn) | -16.6 |
| COCCN(C(=O)COC(=O)CCc1ccc(OC)cc1)c1c(N)n(Cc2ccccc2)c(=O)[nH]c1=O | 13.3 |
| CCc1c(C(C)=O)oc2ccc3c(C)cc(=O)oc3c12 | 3.79 |
| Cc1ccc(/C=c2\sc3nc(-c4ccccc4Br)nn3c2=O)o1 | -3.31 |
| COc1ccccc1NC(=O)COc1ccccc1C(=O)c1cnn(-c2ccccc2)c1 | -9.37 |
| Cc1cccc(C)c1Nc1nnc(SCc2nc3ccccc3c(=O)[nH]2)s1 | 1.2 |
| CCOC(CNC(=O)c1ccc2c(c1)nc(C)n2-c1cccc(F)c1)OCC | 5.21 |
| Cc1ccc(NC(=O)N(Cc2ccc3c(c2)OCO3)Cc2cc3cc4c(cc3[nH]c2=O)OCCO4)cc1 | 18.9 |
| Nc1ccc(O)c2c(=O)cc(-c3ccccc3Cl)oc12 | 6.31 |
| O=C(O)CCN1C(=O)/C(=C\c2ccncc2)SC1=S | 10.5 |
| COC(=O)c1ccc(C(=O)OC)c(NC(=O)CN(C)Cc2ccccc2)c1 | 5.67 |
| CCCCNC(=O)Nc1ccc(C(O)(C(=O)OCC)C(F)(F)F)cc1 (stereo not drawn) | 6.17 |
| COc1ccc(COC(=O)C2=C(C)NC(=O)NC2c2cc(Br)c(O)c(OC)c2)cc1 (stereo not drawn) | 7.22 |
| Cc1ccccc1CSc1[nH]c(=O)ncc1C | 16.1 |
| O=C(NCc1ccc2c(c1)OCO2)C1CC(c2ccc(Cl)cc2)=NO1 (stereo not drawn) | 7.13 |
| O=C(CCCl)Nc1nc2c(s1)CCc1ccccc1-2 | 9.38 |
| COc1ccc(/C=N/NC(=O)c2cc(-c3ccc(C)cc3C)nc3ccccc23)cc1COC(C)=O | 18.7 |
| Cc1nnc(NC(=O)CSc2nc(C3CCCCC3)nc3ccccc23)s1 | 6.92 |
| COc1ccc(CC(NC(C)=O)C(=O)NC2CCN(C(=O)c3ccncc3)CC2)cc1OC (stereo not drawn) | 8.46 |
